Reference: the supplement of paper PMC10441789
The list shows a part of the results. Antibody binding of pooled human sera (four to six donors per pool; dilution not stated) to peptides of the Trypanosoma cruzi antigen TSSA on microarrays. Quantile-normalised fluorescence in arbitrary units, mean of duplicate arrays; higher = more binding. No active / inactive call. The uninfected pools are read here as the healthy donors of the same country. The strongest signals lie near the top of the scale (about 60,000).

How the values were obtained:
Test in all cases: antibody binding signal (normalised fluorescence) (arbitrary fluorescence units); higher = stronger serum antibody binding to peptide
[1] = test system: pooled sera of chronic Chagas disease patients, Argentina
Protocol: (§1)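 Microarray of 15-residue peptides over residues 30-55 of Trypanosoma cruzi TSSAII, each with 1 to 10 substitutions at naturally variable positions, probed with one serum pool per country.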

[2] = test system: pooled sera of chronic Chagas disease patients, Bolivia
Protocol: as §1

[3] = test system: pooled sera of chronic Chagas disease patients, Brazil
Protocol: as §1

[4] = test system: pooled sera of chronic Chagas disease patients, Colombia
Protocol: as §1

[5] = test system: pooled sera of chronic Chagas disease patients, Mexico
Protocol: as §1

[6] = test system: pooled sera of chronic Chagas disease patients, USA
Protocol: as §1

[7] = test system: pooled sera of uninfected people, Argentina
Protocol: as §1

[8] = test system: pooled sera of uninfected people, Bolivia
Protocol: as §1

[9] = test system: pooled sera of uninfected people, Brazil
Protocol: as §1

[10] = test system: pooled sera of uninfected people, Colombia
Protocol: as §1

[11] = test system: pooled sera of uninfected people, Mexico
Protocol: as §1

[12] = test system: pooled sera of uninfected people, USA
Protocol: as §1

Row | Sequence | antibody binding signal [1] | antibody binding signal [2] | antibody binding signal [3] | antibody binding signal [4] | antibody binding signal [5] | antibody binding signal [6] | antibody binding signal [7] | antibody binding signal [8] | antibody binding signal [9] | antibody binding signal [10] | antibody binding signal [11] | antibody binding signal [12]
1 | SGTDNKAAAGGTPSQ | 290 | 285 | 45300 | 2810 | 406 | 1040 | 155 | 704 | 2690 | 370 | 205 | 259
2 | TISTPPSGTDNKAAT | 37300 | 44100 | 50200 | 1330 | 9750 | 16800 | 964 | 701 | 1640 | 167 | 289 | 343
3 | KKTAAGETPSPSGAS | 214 | 219 | 361 | 296 | 262 | 2330 | 265 | 201 | 102 | 264 | 90.3 | 288
4 | TDKKTAAGGAPSQSG | 1140 | 378 | 223 | 6120 | 495 | 484 | 151 | 132 | 159 | 159 | 196 | 130
5 | STPPSGTDKKPAAGG | 50300 | 31000 | 48900 | 8060 | 56000 | 18900 | 1570 | 658 | 450 | 285 | 5620 | 993
6 | SGTDKKPATGETPSP | 31200 | 27200 | 34600 | 4190 | 328 | 24400 | 182 | 467 | 249 | 340 | 3450 | 578
7 | SSTPPSGKEKKTATG | 10000 | 220 | 277 | 422 | 24500 | 802 | 302 | 217 | 83.1 | 222 | 116 | 136
8 | SGKEKKPATGETPSQ | 28600 | 2800 | 24800 | 1770 | 5540 | 20600 | 432 | 424 | 128 | 206 | 696 | 340
9 | PPSGTENKPAAGETP | 45300 | 41300 | 48300 | 319 | 3610 | 21000 | 5090 | 1110 | 440 | 373 | 516 | 761
10 | NKTATGEAPSQSGAS | 6940 | 35400 | 26100 | 140 | 405 | 23100 | 462 | 701 | 364 | 268 | 235 | 915
11 | GTDNKAAAGGAPSPP | 313 | 264 | 29600 | 3220 | 308 | 935 | 220 | 532 | 1690 | 293 | 185 | 287
12 | GKDKKTATGGAPSPP | 553 | 249 | 245 | 1560 | 545 | 760 | 213 | 103 | 99.2 | 106 | 103 | 106
13 | TDNKTATGEAPSPPG | 10700 | 30900 | 20900 | 213 | 255 | 19300 | 144 | 238 | 212 | 152 | 108 | 123
14 | DKKAAAGEAPSQPGA | 5640 | 7500 | 38900 | 293 | 287 | 10800 | 143 | 188 | 151 | 146 | 153 | 160
15 | TEKKAATGETPSPPG | 1710 | 2080 | 13200 | 300 | 366 | 9740 | 427 | 228 | 247 | 761 | 222 | 1910
16 | PPSGTDNKAATGGTP | 26000 | 36400 | 47000 | 923 | 1120 | 4930 | 582 | 705 | 2200 | 343 | 357 | 289
17 | NKPAAGEAPSPPGAS | 1060 | 2460 | 30000 | 402 | 186 | 13300 | 473 | 1010 | 362 | 715 | 159 | 1380
18 | PPSGTDKKPAAGGTP | 30300 | 14500 | 40000 | 15300 | 48600 | 4120 | 830 | 417 | 1360 | 521 | 4070 | 511
19 | SGTENKAATGEAPSQ | 35400 | 46100 | 39500 | 187 | 231 | 29200 | 611 | 380 | 119 | 161 | 141 | 145
20 | EKKTATGGTPSQSGA | 718 | 533 | 679 | 4070 | 1120 | 1760 | 387 | 499 | 422 | 971 | 359 | 559
21 | TISTPPSGKEKKAAT | 12700 | 181 | 302 | 343 | 21500 | 599 | 371 | 263 | 120 | 226 | 81.5 | 144
22 | GTDKKPATGEAPSPS | 52600 | 48400 | 50500 | 7860 | 791 | 40800 | 978 | 747 | 250 | 316 | 630 | 278
23 | ISTPPSGTDNKAAAG | 54400 | 49000 | 56100 | 4070 | 32000 | 20000 | 1240 | 739 | 2240 | 226 | 428 | 390
24 | PPSGTENKPAAGEAP | 49800 | 47100 | 48200 | 377 | 5800 | 24000 | 5790 | 1780 | 477 | 570 | 381 | 862
25 | STPPSGTEKKTAAGE | 33300 | 32800 | 29500 | 226 | 8980 | 4820 | 889 | 297 | 295 | 211 | 144 | 93.9

Row | Sequence | antibody binding signal [1] | antibody binding signal [2] | antibody binding signal [3] | antibody binding signal [4] | antibody binding signal [5] | antibody binding signal [6] | antibody binding signal [7] | antibody binding signal [8] | antibody binding signal [9] | antibody binding signal [10] | antibody binding signal [11] | antibody binding signal [12]
26 | EKKAATGETPSQSGA | 1970 | 1840 | 17600 | 263 | 424 | 10700 | 639 | 741 | 177 | 1060 | 342 | 812
27 | KENKPAAGEAPSQPG | 8780 | 11400 | 45100 | 406 | 550 | 15800 | 199 | 331 | 171 | 130 | 152 | 118
28 | TPPSGKDKKPATGGT | 15200 | 1250 | 5180 | 321 | 49500 | 769 | 207 | 270 | 357 | 276 | 117 | 158
29 | PSGTDKKPATGEAPS | 43200 | 42500 | 49000 | 5030 | 1760 | 38500 | 860 | 1320 | 515 | 564 | 3790 | 276
30 | TEKKPAAGGTPSPPG | 1260 | 182 | 302 | 7620 | 616 | 1990 | 140 | 275 | 2180 | 238 | 242 | 1180
31 | PSGTDKKAAAGGAPS | 1630 | 556 | 3570 | 8240 | 2460 | 1930 | 225 | 714 | 157 | 187 | 860 | 223
32 | PSGTENKTATGEAPS | 39200 | 35900 | 42600 | 838 | 1230 | 29000 | 1090 | 398 | 248 | 380 | 299 | 372
33 | GKEKKPAAGGAPSPS | 3690 | 185 | 235 | 2390 | 1180 | 1230 | 97.6 | 149 | 121 | 79.3 | 87.3 | 253
34 | GTEKKAATGEAPSQP | 25800 | 23600 | 43100 | 833 | 1690 | 28300 | 539 | 690 | 201 | 607 | 202 | 166
35 | PPSGKEKKPATGEAP | 43800 | 14000 | 42200 | 1810 | 5670 | 28100 | 1160 | 1110 | 170 | 472 | 151 | 331
36 | PPSGKENKTATGEAP | 22000 | 24300 | 14100 | 1110 | 1760 | 21500 | 1810 | 1570 | 382 | 1060 | 387 | 292
37 | NKPAAGGAPSQSGAS | 340 | 326 | 7290 | 1690 | 975 | 586 | 806 | 1090 | 499 | 270 | 390 | 1170
38 | TPPSGKDNKPATGET | 21200 | 14100 | 32400 | 230 | 34200 | 16200 | 473 | 744 | 337 | 244 | 2400 | 1990
39 | KDKKPAAGEAPSPSG | 255 | 372 | 2260 | 523 | 538 | 11400 | 97.9 | 105 | 129 | 97.8 | 90.5 | 98.6
40 | GKENKTAAGETPSQP | 5830 | 1840 | 29100 | 10200 | 8400 | 16300 | 588 | 239 | 153 | 192 | 215 | 190
41 | NKAATGGAPSPSGAS | 698 | 355 | 6360 | 573 | 669 | 1380 | 758 | 732 | 288 | 281 | 186 | 1100
42 | GTDNKTATGEAPSPP | 14600 | 30400 | 30200 | 275 | 318 | 21200 | 132 | 558 | 995 | 131 | 110 | 117
43 | ENKAAAGEAPSPPGA | 1180 | 807 | 27300 | 253 | 158 | 13700 | 163 | 119 | 121 | 104 | 97.2 | 114
44 | DNKTATGGAPSQPGA | 700 | 1950 | 3850 | 747 | 343 | 483 | 386 | 201 | 434 | 314 | 528 | 299
45 | TPPSGKEKKTAAGEA | 12900 | 451 | 610 | 1210 | 9270 | 1390 | 420 | 678 | 124 | 296 | 151 | 151
46 | ISTPPSGKEKKTAAG | 12400 | 210 | 344 | 967 | 8400 | 727 | 292 | 248 | 92.3 | 199 | 101 | 199
47 | SSTPPSGTDNKPATG | 43400 | 44900 | 48700 | 6970 | 15800 | 35100 | 1910 | 1390 | 574 | 374 | 1150 | 478
48 | KKPATGGTPSPPGAS | 388 | 291 | 299 | 906 | 330 | 250 | 411 | 406 | 368 | 213 | 104 | 486
49 | KDKKAATGGAPSPSG | 282 | 244 | 204 | 367 | 643 | 449 | 218 | 112 | 111 | 189 | 80.3 | 101
50 | SGKEKKPAAGGAPSQ | 8400 | 2150 | 5230 | 6490 | 7620 | 6450 | 206 | 129 | 220 | 103 | 97.3 | 235
